Hit rate of the full screen: of about 420,000 compounds, about 64,000 (15%) were called active. Inconclusive means that the source gave no clear call. Such entries were picked first, then a sample of the others. The call rests on the fitted dose curve; in most records, active means well fitted inhibition curve with a large enough effect; inconclusive means small, poorly fitted or top-dose-only effect; inactive means flat fitted curve, though single readings scatter. No potency is given beside an inconclusive call; the fits are too rough.
Assay: qHTS for Inhibitors of human tyrosyl-DNA phosphodiesterase 1 (TDP1): qHTS in cells in absence of CPT; further: nearly all actives have a fitted effect of over 55% in size
Conditions: DT40 Tdp1-/- hTDP1 cells, no CPT, ATP luminescence, 48 h; activity change, negative = growth inhibition: at 46.2 µM (top of the series)
How it was run: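 Growth of hTDP1-complemented DT40 Tdp1-knockout cells is measured by ATP luminescence after at least 48 hr compound exposure at 37 °C, with DMSO substituting for the 20 nM CPT used in the parallel screen.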
On the % scale 0 is the no-effect control and ±100 the full control effect; potency means the concentration at half of the fitted maximal effect; tags describe the fitted curve by direction and shape.

SMILES | Potency | activity change, negative = growth inhibition
COc1ccc(NC(=O)CC2SC(=Nc3ccccc3)NC2=O)cc1 (stereo not given) | inconclusive [inhibitor, single point] | –
CCn1c2ccccc2c2cc(NC(=O)CSc3nnc(-c4cccc(OC)c4)n3N)ccc21 | inconclusive [inhibitor, single point] | –
Cc1ccccc1N(CC(=O)N/N=C/c1ccc(Cl)cc1)C(=O)c1ccccc1 | inconclusive [inhibitor, single point] | –
CCNC(=O)COc1ccc(OCc2ccccc2)cc1 | inconclusive [inhibitor, partial curve] | –
O=C(CCCN1C(=O)/C(=C\c2cccs2)SC1=S)Nc1ccc(O)cc1C(=O)O | inactive | –
Cc1ccc2[nH]c3c(NCCN4CCOCC4)ncnc3c2c1 | inconclusive [inhibitor, single point] | –
CC(=O)c1ccc(NC(=O)C2CC(=O)Nc3nc4ccccc4n32)cc1 (stereo not given) | inactive | –
CC(C)c1ccccc1OCC(=O)N1CCCCCCC1 | inconclusive [inhibitor, single point] | –
C[C@@H]1CN([C@H](C)CO)C(=O)CCCn2nncc2CO[C@H]1CN(C)Cc1cccc2c1OCCCO2 | inactive | –
CCOCCCn1c(SC(C(=O)Nc2cc(C)ccc2C)c2ccccc2)nnc1-c1ccc(Cl)cc1 (stereo not given) | inactive | –
Cc1nnc(N(Cc2ccco2)C(=O)c2ccc(C#N)cc2)s1 | – | inconclusive: -30.7% [inhibitor]
N#Cc1ccc(NC(=O)COC(=O)C2CCC2)cc1 | inactive | –
N#C/C(=C1/SC[C@@H](c2ccc(Cl)cc2Cl)S1)n1ccnc1 | active: 5.96 µM | –
COc1cc(NC(=O)c2ccc(S(=O)(=O)N(C)C)cc2)cc(OC)c1OC | inactive | –
COc1cccc(Cn2c3ccc(NC(=O)Cc4ccccc4C)cc3c(=O)n2C)c1 | inconclusive [inhibitor, full curve, poor fit] | –
O=C(c1ccco1)N1CCN(C(=O)C2CCCN(S(=O)(=O)c3cccc4nsnc34)C2)CC1 (stereo not given) | inconclusive [inhibitor, full curve, poor fit] | –
CC(C)N(CCn1c(SCC(=O)N2CC(=O)Nc3ccccc32)nc2ccccc2c1=O)C(C)C | inconclusive [inhibitor, single point] | –
Cc1ccc2ncc(C(=O)NC(C)c3ccccc3)c(=O)n2c1 (stereo not given) | inconclusive [inhibitor, single point] | –
Cc1cccc(C)c1OCc1nc2ccccc2c(=O)n1/N=C/c1ccc(OCC(=O)O)cc1 | inconclusive [inhibitor, single point] | –
O=[N+]([O-])c1ccc(Nc2nc(NCCN3CCOCC3)nc(Nc3ccc(I)cc3)n2)cc1 | active: 4.47 µM | –
COC(=O)c1ccc(NC(=O)CSc2nncn2-c2cccnc2)cc1 | inactive | –
CCCCN(CC)Cc1ccc(CNC(=S)Nc2ccc(C)cc2Cl)o1 | active: 18.4 µM | –
Cc1ccc(Cn2nnc3c(=O)n(Cc4cccc(C)c4)cnc32)cc1 | inconclusive [inhibitor, single point] | –
O=C(c1ccccc1Cl)N1CCCC(c2nc3c(nnn3Cc3ccccc3)c(=O)[nH]2)C1 (stereo not given) | inconclusive [inhibitor, single point] | –

SMILES | Potency | activity change, negative = growth inhibition
COc1ccc(/C=C/C(=O)NC2CC3CCC2C3)cc1 (stereo not given) | inconclusive [inhibitor, full curve, poor fit] | –
C=CCn1c(=O)c2ccccc2n2c(Sc3nnnn3-c3ccccc3)nnc12 | inconclusive [inhibitor, single point] | –
Nc1cc2c(cc1[N+](=O)[O-])-c1ccccc1C2=NO | active: 8.2 µM | –
COCCNCCCOc1ccc(Br)cc1Cl | inconclusive [inhibitor, single point] | –
COc1ccc(Br)c(-c2nc(CS(=O)(=O)c3ccc(F)cc3)no2)c1 | inconclusive [inhibitor, partial curve] | –
Clc1ccccc1NN(Cc1ccccn1)c1ccccc1Cl | active: 23.1 µM | –
CC1(C(=O)NS(=O)(=O)C2CC2)CCCN(C(=O)c2ccc3c(c2)OCO3)C1 (stereo not given) | active: 5.8 µM | –
Cc1cc(C)c2nc(N3CCC(C(=O)N4CCN(c5ncccn5)CC4)CC3)sc2c1 | inconclusive [inhibitor, single point] | –
O=C(Nc1ccc(F)cc1)c1ccc(S(=O)(=O)N2CCCC2)cc1 | inconclusive [inhibitor, partial curve, poor fit] | –
CC(=O)N1CCC2(CC1)OC(=O)C(C)=C2C(=O)NCc1cccc(Cl)c1 | inactive | –
Cc1ccc2cc(C(c3nnnn3C3CCCC3)N3CCN(c4ccc(F)cc4)CC3)c(=O)[nH]c2c1 (stereo not given) | inconclusive [inhibitor, single point] | –
CC1CC(C)CN(CCC(=O)Nc2ccc3c(c2)CCC3)C1 (stereo not given) | inactive | –
CC(=O)N1C[C@H]2CON(C)[C@H]2C[C@H]1c1cccc(N2CCOCC2)c1 | inconclusive [inhibitor, single point] | –
CC(=O)N1CCN(S(=O)(=O)c2cccc(C(=O)Nc3ccc(F)c(F)c3)c2)CC1 | inconclusive [inhibitor, single point] | –
O=C(Cc1c[nH]c2ccccc12)Nc1nc2ccccc2[nH]1 | inactive | –
Cc1ccc(C)c(Nc2cc(C(=O)NCCCN(C)C3CCCCC3)c3ccccc3n2)c1 | active: 14.6 µM | –
Cc1ccc(N2C(=O)CS(=O)(=O)C23C(=O)N(C)c2ccccc23)cc1F (stereo not given) | inactive | –
CCN(CCO)Cc1csc2ccc(Cl)cc12 | inactive | –
CC1(C2CC2)NC(=O)N(CC(=O)Nc2ccccc2F)C1=O (stereo not given) | inactive | –
CCN(C(=O)COC(=O)/C=C/c1cccc(Cl)c1)c1c(N)n(Cc2ccccc2)c(=O)[nH]c1=O | inconclusive [inhibitor, single point] | –
COc1ccc(OC)c(NC(=O)c2ccc(-n3cccn3)nc2)c1 | – | inconclusive: -32.4% [inhibitor]
C[N+](C)(C)CC(O)CC(=O)[O-] (stereo not given) | inactive | –
CCOC(=O)CN1C(=O)C(O)(C2CCc3ccccc3C2=O)c2ccccc21 (stereo not given) | inconclusive [inhibitor, single point] | –
CC(=O)NCCC(=O)Nc1nc(-c2c[nH]c3ccccc23)cs1 | inconclusive [inhibitor, single point] | –

SMILES | Potency | activity change, negative = growth inhibition
COc1cc(C)c(Cl)c(C)c1S(=O)(=O)NC1CC(C)(C)NC(C)(C)C1 | inconclusive [inhibitor, single point] | –
CCC1CCCCN1Cc1nc2c(c(=O)n(C)c(=O)n2C)n1CC(C)C (stereo not given) | inconclusive [inhibitor, single point] | –
O=c1[nH]c(=S)[nH]c2c1C(c1ccc(Cl)cc1)OC(CCc1ccccc1)C2 (stereo not given) | inconclusive [inhibitor, single point] | –
CCCSc1nc2cc(OC)c(OC)cc2c(=N)n1CCCN1CCOCC1 | active: 23.1 µM | –
COc1ccc(NC(=O)C(C)n2nc(-c3cc(C)ccc3C)c3c(c2=O)CCCC3)cc1 (stereo not given) | inconclusive [inhibitor, single point] | –
CCOC(=O)c1[nH]c(C)c(C(=O)OC)c1C | inactive | –
CCOC(=O)[C@@H]1[C@H]2COc3ccc(Br)cc3[C@@H]2N2C(=O)N(c3ccc(F)cc3)C(=O)[C@]12C | inconclusive [inhibitor, partial curve] | –
COc1ccc(Cl)c(Cn2c(NCC(C)O)nc3c2c(=O)n(C)c(=O)n3C)c1 (stereo not given) | inconclusive [inhibitor, partial curve] | –
Cc1cccc(CCN(C(=O)c2snc(C(N)=O)c2N)C(C(=O)NCC2CCCO2)c2ccc(F)cc2)c1 (stereo not given) | inconclusive [inhibitor, single point] | –
CCC(=O)Nc1nnc(/C=C/c2ccc(OC)cc2)s1 | inconclusive [inhibitor, single point] | –
O=C(NCCO)c1ccc(CSc2nc3ccccc3[nH]2)cc1 | inconclusive [inhibitor, single point] | –
CCOc1ccccc1N1CCN(CC(=O)c2c(N)n(C)c(=O)n(C)c2=O)CC1 | – | inconclusive: -30.3% [inhibitor]
CC(C)CCN(CC(=O)NCc1ccc(F)cc1)S(=O)(=O)c1ccccc1F | inconclusive [inhibitor, single point] | –
CCOc1cccc2cc(C(=O)NCc3ccc(F)cc3)c(=N)oc12 | active: 23.1 µM | –
Cc1cc(=O)oc2ccc(OCC(=O)N3CCc4ccccc43)cc12 | inconclusive [inhibitor, partial curve] | –
CNc1nc(-c2cccc(C#N)c2)nc2ccccc12 | inconclusive [inhibitor, single point] | –
O=[N+]([O-])c1ccc(Nc2nc(N3CCOCC3)nc(N3CCOCC3)n2)cc1 | inconclusive [inhibitor, partial curve] | –
CCOc1ccc(NC(=O)CSc2nnc(-c3ccncc3)n2-c2ccccc2)cc1 | inactive | –
CC1C/C(=N\Nc2ccc(S(N)(=O)=O)cc2[N+](=O)[O-])CC(C)(C)C1 (stereo not given) | inconclusive [inhibitor, single point] | –
COCCNC(=O)CSc1nc2cc3c(cc2c(=O)n1Cc1ccc(C(=O)NCCc2ccc(OC)c(OC)c2)cc1)OCO3 | active: 20.6 µM | –
Cc1cc(=O)[nH]c(N/N=C/c2ccc(N(C)C)cc2)n1 | inactive | –
CCOc1cc(C)c(S(=O)(=O)NC2CCCCC2)cc1C | inconclusive [inhibitor, single point] | –

— PubChem BioAssay AID686978 (National Center for Advancing Translational Sciences (NCATS), 2013)
